The other results are listed elsewhere or left out. Repeats are few or missing, and single values can be far off.
How the values were obtained:
Assay in all cases: cell count relative to DMSO control; melanoma cells; higher = more viable cells
Details in all cases: library dose: low library concentration; 72 h
MZ2-MEL = system: MZ2-MEL
MeWo = system: MeWo
RPMI7951 = system: RPMI7951
RVH-421 = system: RVH-421
SkMel28 = system: SkMel28
SkMel2 = system: SkMel2
SkMel30 = system: SkMel30
SkMel5 = system: SkMel5
UACC257 = system: UACC257
UACC62 = system: UACC62
WM115 = system: WM115
WM1716 = system: WM1716
WM1745 = system: WM1745
WM3526 = system: WM3526
WM3619 = system: WM3619
WM451Lu = system: WM451Lu
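Further: cell number obtained by counting DAPI-stained nuclei in high-throughput microscope images with image analysis software, screen run in 1,536-well plates.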

SMILES	cell count (MZ2-MEL) [%]	cell count (MeWo) [%]	cell count (RPMI7951) [%]	cell count (RVH-421) [%]	cell count (SkMel28) [%]	cell count (SkMel2) [%]	cell count (SkMel30) [%]	cell count (SkMel5) [%]	cell count (UACC257) [%]	cell count (UACC62) [%]	cell count (WM115) [%]	cell count (WM1716) [%]	cell count (WM1745) [%]	cell count (WM3526) [%]	cell count (WM3619) [%]	cell count (WM451Lu) [%]
Cc1cc(N2CCOCC2)cc2[nH]c(-c3c(NC[C@@H](O)c4cccc(Cl)c4)cc[nH]c3=O)nc12 + OCCn1cc(-c2cnc3nnn(Cc4ccc5ncccc5c4)c3n2)cn1 [PF04217903] (first compound 0.2 µM, partner dose 1 µM)	98.5	91	120	95.9	90.2	87.7	89.9	96.4	121	97.7	90.3	102	90.5	88.3	91.4	112
O=C(O)[C@@H]1[O][Sb](=[O])([O][Sb]2(=[O])[O][C@H]([C@H](O)CO)[C@H](O)[C@H](C(=O)O)[O]2)[O][C@H]([C@H](O)CO)[C@@H]1O (stereo partly drawn) [stibogluconate] + Oc1cc(-c2nc(-c3ccccc3)[nH]c2-c2ccncc2)ccc1Cl [L779450] (first compound 2 µM, partner dose 0.2 µM)	79.2	73.7	84.1	77.7	71.4	79	88.7	102	81.3	53.1	74.6	121	86.7	72.4	96	104
O=C(O)[C@@H]1[O][Sb](=[O])([O][Sb]2(=[O])[O][C@H]([C@H](O)CO)[C@H](O)[C@H](C(=O)O)[O]2)[O][C@H]([C@H](O)CO)[C@@H]1O (stereo partly drawn) [stibogluconate] + O=C(Nc1ccccc1)c1cc([N+](=O)[O-])ccc1Cl [GW9662] (first compound 2 µM, partner dose 2 µM)	104	100	121	129	120	94.8	106	110	93.9	95.5	89.9	102	98.9	124	89.9	98.7
Cn1nnc2c(C(N)=O)ncn2c1=O [temozolomide] + COc1cc2c(Oc3ccc4[nH]c(C)cc4c3F)ncnc2cc1OCCCN1CCCC1 [cediranib] (first compound 2 µM, partner dose 0.4 µM)	91.3	103	101	74.2	72.7	106	95.6	93.3	103	62.7	81.8	73.9	90.8	89.8	99.8	96.1
O=C(O)c1ccc2c(c1)nc(Nc1cccc(Cl)c1)c1ccncc12 + N#Cc1c(O)c2c(-c3ccc(-c4ccccc4O)cc3)csc2[nH]c1=O [A769662] (first compound 0.4 µM, partner dose 2 µM)	93.2	96.5	99	90.2	90.4	98.3	88.1	99.3	91.7	113	93.6	77.4	89.6	76.8	114	92.9
O=C(O)[C@@H]1[O][Sb](=[O])([O][Sb]2(=[O])[O][C@H]([C@H](O)CO)[C@H](O)[C@H](C(=O)O)[O]2)[O][C@H]([C@H](O)CO)[C@@H]1O (stereo partly drawn) [stibogluconate] + O=C(Nc1cccc(Cl)c1)Nc1ncc(CCNc2ncnc3ccsc23)s1 [SNS314] (first compound 2 µM, partner dose 0.0008 µM)	109	105	118	123	104	110	94.8	108	99.1	87.5	90.8	122	96.1	84	104	59.9
Cn1nnc2c(C(N)=O)ncn2c1=O [temozolomide] + CN(C)S(=O)(=O)c1ccc2c(c1)/C(=C/c1cc3c([nH]1)CCCC3)C(=O)N2 [SU6656] (first compound 2 µM, partner dose 0.4 µM)	98.4	110	109	109	80.1	102	85	86.6	87.9	57.9	79.5	97.8	92.4	101	94.4	98.3
O=C(Nc1cc(C(F)(F)F)cc(C(F)(F)F)c1)c1cc(Cl)ccc1O + CN(C)S(=O)(=O)c1ccc2c(c1)/C(=C/c1cc3c([nH]1)CCCC3)C(=O)N2 [SU6656] (first compound 0.016 µM, partner dose 0.4 µM)	106	81.9	106	104	77.1	97.7	58.8	86.3	103	69.2	70.7	111	94.2	69.3	118	76.3
O=C(O)[C@@H]1[O][Sb](=[O])([O][Sb]2(=[O])[O][C@H]([C@H](O)CO)[C@H](O)[C@H](C(=O)O)[O]2)[O][C@H]([C@H](O)CO)[C@@H]1O (stereo partly drawn) [stibogluconate] + COc1ccc(-c2ccc3c(N4CCOCC4)nc(N4C[C@@H](C)O[C@@H](C)C4)nc3n2)cc1CO [KU0063794] (first compound 2 µM, partner dose 0.02 µM)	96.2	87.4	94.1	14.4	89.3	90.4	88.2	106	83.6	103	94.8	102	98.3	92.2	80.4	116
Cn1nnc2c(C(N)=O)ncn2c1=O [temozolomide] + Cc1cc(N2CCOCC2)cc2[nH]c(-c3c(NC[C@@H](O)c4cccc(Cl)c4)cc[nH]c3=O)nc12 [BMS536924] (first compound 2 µM, partner dose 0.2 µM)	85.6	95.8	100	87.4	76.4	94	82.1	95.9	94.6	84.2	108	87.1	82.8	106	85.2	94.1
O=C(Nc1cc(C(F)(F)F)cc(C(F)(F)F)c1)c1cc(Cl)ccc1O + Oc1cc(-c2nc(-c3ccccc3)[nH]c2-c2ccncc2)ccc1Cl [L779450] (first compound 0.016 µM, partner dose 0.2 µM)	77.8	101	115	84.2	82.7	87	90.6	111	84.4	64.4	90.7	137	99.1	67.5	85	86.5
Cn1nnc2c(C(N)=O)ncn2c1=O [temozolomide] + Cc1ccc(NC(=O)c2cccc(N(C)C)c2)cc1NC(=O)c1ccc(O)cc1 [ZM336372] (first compound 2 µM, partner dose 2 µM)	75.2	102	102	123	73	118	79.6	107	100	75.2	98.1	75.4	101	53.5	96	112
Cc1cc(N2CCOCC2)cc2[nH]c(-c3c(NC[C@@H](O)c4cccc(Cl)c4)cc[nH]c3=O)nc12 + NCC(=O)Nc1ccc(-n2nc(C(F)(F)F)cc2-c2ccc3c(ccc4ccccc43)c2)cc1 [OSU03012] (first compound 0.2 µM, partner dose 1 µM)	89.8	55.1	116	111	72.9	77.7	36.3	80.4	84.7	70.6	80.9	105	80.1	54	101	62.3
O=C(O)c1ccc2c(c1)nc(Nc1cccc(Cl)c1)c1ccncc12 + COc1cc(N2CCC(N3CCN(C)CC3)CC2)ccc1Nc1ncc(Cl)c(Nc2ccccc2S(=O)(=O)C(C)C)n1 [NVP-TAE684] (first compound 0.4 µM, partner dose 0.08 µM)	88.6	83	114	126	103	101	87.1	114	85.9	89.1	101	58.9	90.8	91.3	93	84.6
O=C(Nc1cc(C(F)(F)F)cc(C(F)(F)F)c1)c1cc(Cl)ccc1O + c1cc(-c2cnn3cc(-c4ccc(OCCN5CCCCC5)cc4)cnc23)ccn1 [Dorsomorphin] (first compound 0.016 µM, partner dose 0.4 µM)	95.4	96.9	97.4	108	98.9	116	103	93.5	81.7	89.8	96	100	77.3	84.4	110	111
O=C(O)c1ccc2c(c1)nc(Nc1cccc(Cl)c1)c1ccncc12 + COc1ccc2c(c1)CCC1C2CCC2(C)C(NCCCCCCN3C(=O)C=CC3=O)CCC12 [U73122] (first compound 0.4 µM, partner dose 0.4 µM)	88.6	90.7	95.8	116	100	96.4	109	101	95.9	90.5	99.2	85.1	88.2	85.5	106	102
O=C(Nc1cc(C(F)(F)F)cc(C(F)(F)F)c1)c1cc(Cl)ccc1O + O=C(O)C(=O)Nc1sc2c(c1C(=O)O)CCNC2 [TCS401] (first compound 0.016 µM, partner dose 1.66667 µM)	101	104	102	89.4	93.4	106	105	90.9	87.9	93.4	103	117	91.4	103	131	92.9
O=C(O)[C@@H]1[O][Sb](=[O])([O][Sb]2(=[O])[O][C@H]([C@H](O)CO)[C@H](O)[C@H](C(=O)O)[O]2)[O][C@H]([C@H](O)CO)[C@@H]1O (stereo partly drawn) [stibogluconate] + c1cc(-c2cnn3cc(-c4ccc(OCCN5CCCCC5)cc4)cnc23)ccn1 [Dorsomorphin] (first compound 2 µM, partner dose 0.4 µM)	97.6	113	85.4	115	96.4	113	110	89.5	94	107	110	112	101	90.7	116	93.6

Reference: the supplement of paper PMC4604168 (melanoma cell lines)
